# Test results published in the supplement of paper PMC3334620.
# The full ranking holds about 33,000 sequences; the median of “E-score (-0.5 to 0.5)” is about -0.012, and the highest 2% start at about 0.29. The list shows a part of the results.
# Target: T1, Ybr033w (UniProt P38073)
# T1 sequence: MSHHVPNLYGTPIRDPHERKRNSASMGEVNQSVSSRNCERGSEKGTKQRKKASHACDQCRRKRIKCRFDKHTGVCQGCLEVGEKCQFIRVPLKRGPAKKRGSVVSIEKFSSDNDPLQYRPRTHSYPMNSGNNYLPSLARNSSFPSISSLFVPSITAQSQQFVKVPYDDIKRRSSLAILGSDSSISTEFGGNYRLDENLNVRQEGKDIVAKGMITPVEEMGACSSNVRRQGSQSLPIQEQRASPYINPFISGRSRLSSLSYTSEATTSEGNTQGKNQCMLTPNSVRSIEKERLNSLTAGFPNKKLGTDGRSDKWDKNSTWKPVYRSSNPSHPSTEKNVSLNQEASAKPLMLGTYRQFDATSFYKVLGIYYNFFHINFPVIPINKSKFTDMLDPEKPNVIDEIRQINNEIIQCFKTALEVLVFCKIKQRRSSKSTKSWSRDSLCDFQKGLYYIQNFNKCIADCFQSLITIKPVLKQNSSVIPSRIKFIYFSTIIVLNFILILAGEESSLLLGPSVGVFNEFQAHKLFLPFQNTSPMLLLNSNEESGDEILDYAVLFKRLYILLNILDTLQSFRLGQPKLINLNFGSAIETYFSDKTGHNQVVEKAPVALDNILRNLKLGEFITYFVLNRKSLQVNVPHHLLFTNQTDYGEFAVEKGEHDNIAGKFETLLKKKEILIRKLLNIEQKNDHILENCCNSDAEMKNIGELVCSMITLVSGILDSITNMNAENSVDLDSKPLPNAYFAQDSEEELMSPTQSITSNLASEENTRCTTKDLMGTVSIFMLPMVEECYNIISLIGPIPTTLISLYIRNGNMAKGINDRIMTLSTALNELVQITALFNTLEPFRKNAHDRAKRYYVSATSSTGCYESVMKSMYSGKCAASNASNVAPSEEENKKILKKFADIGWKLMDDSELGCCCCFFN
# Experiment: PBM E-score (8-mer binding enrichment) (E-score (-0.5 to 0.5)); higher = stronger / more preferred TF binding; most listed sequences are background and not binding sites
# Settings: protein concentration: 200 nM; construct: GST-full length
# Outline: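 Each ungapped eight-base word and its reverse complement, pooled, received an E-score from the Universal PBM Analysis Suite. Underlying scans, normalised with masliner, recorded fluorescent anti-GST bound to GST-tagged yeast transcription factors. These were applied at about 100-200 nM to universal all-10-mer Agilent arrays double-stranded by primer extension.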
row,Sequence,PBM E-score
1,GGCATCAC,-0.144
2,ACAGATAC,0.264
3,ATACACAT,0.273
4,GTACAGCA,0.102
5,AATTCGGT,0.243
6,ACCTTAAA,-0.0552
7,AGCCTAGG,-0.192
8,AGGTTTTC,0.166
9,GTCACCTA,-0.287
10,GTCAGTCA,0.0403
11,CTGTATAC,0.108
12,ACGATTGC,0.158
13,ACTTAATC,0.275
14,CTGCACCC,-0.204
15,CTATTTTC,0.284
16,CGAGGAAA,0.177
17,ATGACGGC,-0.0175
18,GCGCTGAC,-0.0039
19,CATATACA,0.324
20,ACCGAGCT,-0.165
21,GGATGCCC,-0.246
22,CTAGGTAC,-0.0397
23,CATCCCAG,-0.109
24,CGCAGACA,0.0597
25,CATAGTGA,0.0482

row,Sequence,PBM E-score
1,ATGGTCAA,0.198
2,ATATTCCA,0.395
3,CGCTAAAG,0.0341
4,AAAAGTCA,0.0923
5,AAGGTACA,0.0441
6,CAAAGAGA,-0.0535
7,ACTTGTGC,-0.0733
8,TCGTTGAA,0.122
9,ATAACTCC,0.0699
10,AAATCCTC,0.0918
11,GCTGGCCC,-0.417
12,CTTTACAC,0.166
13,CAGCAGAG,-0.167
14,AAGCGTCC,-0.248
15,AGATATGC,0.0293
16,CCCGTAAA,0.0906
17,CATATTAG,0.202
18,AGGCTCCA,-0.0867
19,GACCTTCC,-0.151
20,GTATGTAA,0.222
21,GACCGGTC,-0.181
22,ACACGGAC,0.0335
23,CACAATTA,0.11
24,GCGGCCAA,-0.154
25,ATTCCTGG,-0.0389

row,Sequence,PBM E-score
1,GAAGGGGA,-0.126
2,ATTACTAG,-0.0823
3,ACATGGGA,0.0315
4,GGCTTGTA,-0.0511
5,GTAATCAC,-0.0232
6,AGCGCACA,-0.0519
7,ATCGGGAA,0.0829
8,CGTAGTTA,0.0219
9,CCGATCAG,-0.113
10,TACCCAGA,0.0301
11,CACGCGTG,-0.0893
12,ACGTTAAT,0.124
13,CACCGAAC,-0.112
14,AACCGTAC,-0.105
15,CCCCGTTC,-0.163
16,GATAAGCC,-0.164
17,ACCCACCG,-0.0329
18,CCGCTCCA,-0.27
19,AGGCGTGA,-0.254
20,CAAGGCAG,-0.105
21,CCTCAAGG,-0.109
22,TGGCGTAA,-0.0667
23,AAAGAGGC,-0.0851
24,CGATCCAC,-0.0709
25,ATGCAGGC,-0.293

row,Sequence,PBM E-score
1,ATTCCACC,0.208
2,AAGGGAAT,0.0801
3,ACTGACAC,-0.0621
4,GAGCCGAA,-0.133
5,ATCGAAGA,0.131
6,CTCCTCTC,-0.304
7,GCCCCCAC,-0.415
8,CGTAATAA,0.154
9,TTCCACAA,0.314
10,TACAGCCA,-0.0291
11,CGTATCGC,0.0225
12,CGCACTAA,0.0977
13,ACGAGGAC,-0.181
14,CGGATCAC,-0.0588
15,GCCTTACA,-0.15
16,CCACCGTC,-0.21
17,TATGCTAA,0.11
18,AGTAAGCG,0.0971
19,AAGTTCTC,0.0618
20,TATACGGA,0.152
21,CCCTTTAA,-0.0358
22,AGACAGCC,-0.192
23,CTGAACGA,-0.104
24,CACGCCTG,-0.229
25,AAGTACCG,0.0607

row,Sequence,PBM E-score
1,CGCATTGC,-0.0541
2,ATGCCGTA,-0.129
3,CACACACC,0.0464
4,CTCCGGCC,-0.259
5,CTCTCTCA,-0.0712
6,CATCTCAC,0.0316
7,GTCACATA,0.107
8,AACCGATC,-0.164
9,AGCACCAA,0.0937
10,ACATCGTG,-0.0132
11,AAGGATTG,0.126
12,AAGTTTGT,0.269
13,CCATCCGC,-0.137
14,TCGATCGA,-0.0729
15,ACATTTAG,-0.0589
16,GCTCGCGA,0.0005
17,GATAGGTA,0.152
18,AATCCTGG,0.0204
19,CGCCGTGC,-0.111
20,CATGCCAG,-0.113
21,GAAGGTGC,-0.224
22,CGCTTAGA,-0.0786
23,GTTCTCTA,-0.0219
24,CATCGCCA,-0.208
25,GATATCTA,0.0989

row,Sequence,PBM E-score
1,AAACCCTT,-0.0128
2,AACTGGCC,0.0651
3,CCAAGATA,0.0894
4,AGCGTTAT,-0.0172
5,ACGATGTC,-0.154
6,CTTCTCGC,-0.0908
7,CGGCTGAC,-0.078
8,AGCTACAC,0.0817
9,AGCGAACG,-0.283
10,GATACAGA,-0.0116
11,ACGAATCG,0.073
12,CGGTTGCA,-0.122
13,CGGAGCCG,-0.211
14,GATACCTA,0.185
15,ATCATGAG,0.119
16,CGTTTCTA,0.188
17,ATTTCGCC,0.0897
18,CCCACGAA,-0.114
19,CTTAGGAC,-0.229
20,AGTGTTTG,0.118
21,TACTAGCA,-0.0113
22,TCCAGTAA,0.0303
23,CAGAAGGG,-0.323
24,CCGCCAGA,-0.0108
25,ACGCCACG,-0.323

row,Sequence,PBM E-score
1,GACACACA,0.0158
2,ATCCGCCC,-0.0758
3,CAGCAGCC,-0.152
4,CCCATGCC,-0.354
5,CACGCAAC,0.0617
6,AACACCTA,0.0452
7,ACGGTCAC,-0.322
8,GCTACCCC,-0.323
9,CGTACCAC,0.101
10,ATATATTA,0.306
11,GTGAACAC,-0.15
12,GGCGCGAA,0.0314
13,AGTGACCA,0.0221
14,AGTAAGTG,0.00718
15,TCTTAGCA,-0.0923
16,ACACGCAC,-0.0468
17,ACACTGTG,0.0821
18,TCCGAACA,0.119
19,AAAGGGGA,-0.276
20,CGCGCGAC,-0.017
21,TGTTAGAA,0.147
22,ACACCTAT,0.154
